# This sample is rich in variants without activity.
# B1: TPR 5TU (parent)
# chain: GGAUCUUCUCGAUCUAACAAAAAAGACAAAUCUGCCACAAAGCUUGAGAGCAUCUUCGGAUGCAGAGGCGGCAGCCUUCGGUGGCGCGAUAGCGCCAACGUUCUCAACUAUGACACGCAAAACGCGUGCUCCGUUGAAUGGAGUUUAUCAUG
# Variants of: B1
# Test: polymerase ribozyme fitness, log enrichment relative to wild type (log ratio); higher = more active; in vitro selection for triplet polymerase activity
# Summary of the method: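 One round of in vitro selection, in triplicate, was applied to PCR-built, transcribed mutant libraries of each subunit of a heterodimeric triplet polymerase ribozyme. The steps were annealing with a biotinylated primer, partner subunit and triplets, incubation frozen at −7 °C, gel excision of extended constructs, streptavidin-bead capture and RT-PCR. Fitness is the logarithm, base 2, of genotype enrichment over wild-type enrichment from inverse-variance-weighted replicate averages of Illumina-sequenced inputs and outputs, keeping genotypes with ≥10 input reads and ≥1 read per output.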
row,Variant,polymerase ribozyme fitness (log ratio)
1,GGAUCUUCUCGAUCUAACAAAAAAGACAAAUCUGGCACAAAGCUUGAGAGCCUCUUCGGAUGCAGAGGCGGCAGCCUUCGGUGGCGCGAUAGCGACAACGUUCUCAACUAUGACACGCAAAACGGGUGCUCCGUUGAAUGGAGUUUAUCAUG,≤ -4.2
2,GGAUCUUCUCGAUCUAACAAAAAAGACAAAUCUUCCACAAAGCUUGAGAGCAUCAUCGGAUGCAGAGGCGGCAGCUUUCAGUGGCGCGAUAGCGCCAACGUUCUCAACUAUGACACGCAAAACGCGUGCUCCGUUGAAUGGAGUUUAUCAUG,≤ -4.2
3,GGAUCUUCUCGAUCUAACAAAAAAGACAAAUCUGACACAAAGCUUGAGAGCAUCUUCGGAUGCAGAGGCGGCAGCCUUCGGUGGCGCGAUAGCGCCAACGUUCUCAACUAUGACACGCAAAACGCGUGCUCCGUUGAAUGGAGUUUAGCAUG,≤ -4.2
4,GGAUCUUCUCGAUCUAACAAAAAAGACAAAUCUUCCACAAAGCUUGAGAGCAUCAUCAGAUGCAGAGGCGGCAGCCUUUGAUGGCGCGAUAACGCCAACGUUCUAAACUAUGACACGCAAAACGCGUGCUCCGUUGAAUGGAGUUUAUCUUG,≤ -4.2
5,GGAUCUUCUCGAUCUAACAAAAAAGACAAAUCUGACACAAAGCUUGAGACCAUCUUCGGAUGCAGAGGCGGCAGCCUUCGGUGGCACGAUAGCGCCAACGUUCUCAACUAUGACACGCAAAACGCGUGCUCCGUUGGAUGGAGUUUAUCAUG,≤ -4.2
6,GGAUCUUCUCGAUCUAACAAAAAAGACAAAUCUGACACAAAGCUUGAGAGCAUCUUCGGAUGCAGAGGCGGCAGGCGUCGGUGGCGCGAUAGCGCCAACGUUCUCAACUAUGACACGCAAAACGCGUGCUCGGUUGAAUGGAGUUUAUCACG,≤ -4.2
7,GGAUCUUCUCGAUCUAACAAAAAAGACAAAUCUGACACAAAGCUUGAGAGCAUCGUCGGAUGCAGAGGCGGCAGCCUUCGGUGGCGCGAUGGCGGCAACGUUCUCAACUAUGACACGCAAAUCGCGUGCUCCGUUUAAUGGAGUUUAUCAUG,≤ -4.2
8,GGAUCUUCUCGAUCUAACAAAAAAGACAAAUCUGACACAAAGCUUGAGAGCAUCUUCGGAUGCAGAGGUGGCAGCCUUCGGUGGCGCGAUAGUGCCAACGUUCUCAACUAUGACACGCAAAACGUGUGCUCCGUUGAAUGGAGUUUAUCAUG,≤ -4.2
9,GGAUCUUCUCGAUCUAACAAAAAAGACAAAUCUGACACAAAGCUUGAGAGCAUCUUCGGAUGCAGAGGCGGCAGCCUUCGGUGGCGCGAUAGCGCCAACGUUCUCAACUAUGACACGCAAAACGCGGGCUCCGUUGAAUGGAGUUUAUCAUG,≤ -4.2
10,GGAUCUUCUCGAUCUAACAAAAAAGACAAAUCUUCCACAAAACUUGAAAGCAUCUUCGGAUGCAGAGGCGGCAGCCUUCGGUGGCGCGAUAGCCCCAACGUUCUCAUCUAUGACACGCAAAACGCGUGCUCCGUUGAAUGGAGUUUAUCAUG,≤ -4.2
11,GGAUCUUCUCGAUCUAACAAAAAAGACAAAUCUGACACAAAGCUUGAGAGCAUCUUUGGAUGCAGAGACGGCAGACUUCGGUGGCGUGAUAGCGCCAAAGUUCUCAACUAUGACACGCAAAACGCGUGCUCCGUUGAAUGGAGUUUAUCAUG,≤ -4.2
12,GGAUCUUCUCGAUCUAACAAAAAAGACAAAUCUGGCACAAAGCUUGAGAGCAUCUUCGGAUGCAGAGGCGGCAGCCUUCGGUGGCGCGGUAGCGCCAACGUUCUCAACUAUGACACGCAAAACGCGUGCUCCGUUGAAUGGAGUUUAUCAUG,≤ -4.2
13,GGAUCUUCUCGAUCUAACAAAAAAGACAAAUCUUCCACAAAGCUUGAGAGCACCUUCGGAUGCAGAGGCGGCAGCCUUCGGUGGCGCAAUAUCGCCAACGUUCUCAACUAUGACACGCAAAACGCGUGCUCCGUUGAAUGGAGUUUAUCAUA,≤ -4.2
14,GGAUCUUCUCGAUCUAACAAAAAAGACAAAUCUGACACAAAGCUUGAGAGCAUCUUCGGAUGCAGAGGCGGCAGCCUUAUAUGGGGCGAUAGCGCCAACGUUCUGAACUAUGACAUGCAAAACGCGUGCUCCGUUGAAUGGAGUUUAUCAUG,≤ -4.2
15,GGAUCUUCUCGAUCUAACAAAAAAGACAAAUCUUCCACAAAGCUUGAGAGCAUCAUCGGAUGCAGAGGCGGCAGCCUACGGUGGAGCGAUAGCGCCAACGUUCUCAACUAUGACACGCACAACGCGUGCGCCGAUGAAUGGAGUUUAUCAUG,≤ -4.2
16,GGAUCUUCUCGAUCUAACAAAAAAGACAAAUCUGACACAAAGCUUGAGAGCAUCAUCGGAUGCAGAGGCGGCAGCCUUCGGUGGCGCGAUCGCGCCAACGUUCUCAACUAUGACACGCAAAACGCGUGCUCCGUUGAAUGGAGUUUAUCAUG,≤ -4.2
17,GGAUCUUCUCGAUCUAACAAAAAAGACAAAUCUUCCACAAAGCUUGAUAGCAUCUUCGGAUGCAGAGGCGGCAGCCUUCGGUGGCGCGAUAGCGCCAACGUUCUCAACUAUGACACGCAAAACGCGUGCUCCGUUGAGUGGAGGUUAUCAUG,≤ -4.2
18,GGAUCUUCUCGAUCUAACAAAAAAGACAAAUCUGACACAAAGCUUGAGAGCAUCUUCGGAUGCAGAGGCGGGUGCCGUCGGUGGCGCGAUAACGCCAACGUUCUCAACUAUGACACGCAAAACGCGUGCUCCCUUGAAUGGAGUUUACCAUG,≤ -4.2
19,GGAUCUUCUCGAUCUAACAAAAAAGACAAAUCUGACACAGAGCUUGAGAGCAUCUUCGAAUGCAAAGGCGGCAGCCUUCGGAGGCGCGAUAACGCCAACGUUAUCAACUAUGACACGCAAAACGCGUGCUCCGUUGAAUGGAGUUUAUCAUG,≤ -4.2

# Source: the RNAGym collection of RNA variant scans (doi:10.1073/pnas.2313332121)
